# Hit rate of the full screen: of about 310,000 compounds, about 14,000 (4.5%) showed an effect of 50% or more. The effect is printed as a negative number. This is one part of the list.
# Target: human ether-à-go-go-related gene (hERG) potassium channel (human, UniProt Q12809)
# Assay: primary screen, population patch clamp on CHO cells stably expressing hERG
# 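Note: peak tail current of the secondary pulse compared with the same well before compound.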
# human ether-à-go-go-related gene (hERG) potassium channel, sequence (Q12809 whole entry, looked up): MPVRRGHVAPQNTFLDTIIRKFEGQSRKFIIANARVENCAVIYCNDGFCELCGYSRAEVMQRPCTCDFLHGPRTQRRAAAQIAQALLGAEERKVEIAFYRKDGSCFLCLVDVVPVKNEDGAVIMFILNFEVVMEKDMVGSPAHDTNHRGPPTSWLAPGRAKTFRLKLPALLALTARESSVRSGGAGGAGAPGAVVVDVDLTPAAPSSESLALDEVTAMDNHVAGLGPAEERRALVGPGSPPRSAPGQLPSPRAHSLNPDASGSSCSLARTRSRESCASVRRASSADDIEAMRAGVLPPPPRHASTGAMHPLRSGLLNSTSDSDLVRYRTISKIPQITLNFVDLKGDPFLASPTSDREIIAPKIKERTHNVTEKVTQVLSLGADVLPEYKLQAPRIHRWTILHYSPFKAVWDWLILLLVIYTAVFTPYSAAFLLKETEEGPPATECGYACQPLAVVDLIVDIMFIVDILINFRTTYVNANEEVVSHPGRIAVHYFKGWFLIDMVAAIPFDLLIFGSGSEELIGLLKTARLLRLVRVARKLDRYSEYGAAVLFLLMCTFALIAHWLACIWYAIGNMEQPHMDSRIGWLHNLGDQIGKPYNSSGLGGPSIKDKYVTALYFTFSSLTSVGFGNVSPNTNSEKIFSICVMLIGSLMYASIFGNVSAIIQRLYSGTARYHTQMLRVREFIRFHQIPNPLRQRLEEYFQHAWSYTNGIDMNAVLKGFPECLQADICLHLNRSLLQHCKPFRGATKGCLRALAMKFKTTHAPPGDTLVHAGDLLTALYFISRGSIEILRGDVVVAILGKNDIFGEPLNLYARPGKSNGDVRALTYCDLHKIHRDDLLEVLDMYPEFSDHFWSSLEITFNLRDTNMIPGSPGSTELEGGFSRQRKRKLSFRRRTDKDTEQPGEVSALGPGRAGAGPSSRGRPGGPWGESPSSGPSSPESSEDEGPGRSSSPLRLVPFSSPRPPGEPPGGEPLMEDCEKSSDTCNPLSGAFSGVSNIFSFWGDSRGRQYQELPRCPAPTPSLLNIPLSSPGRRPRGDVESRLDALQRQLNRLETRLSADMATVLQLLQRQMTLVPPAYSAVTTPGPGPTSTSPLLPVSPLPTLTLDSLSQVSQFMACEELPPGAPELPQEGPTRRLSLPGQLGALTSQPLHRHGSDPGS
row,Compound,"hERG current change (%, negative = inhibition) at 10uM [%]"
1,COC(=O)CSc1nc(N)c(C#N)c(-c2ccc(O)cc2)c1C#N,-2.55
2,Cc1ccc(N2C(=O)CC(Nc3ccccc3)C2=O)cc1 (stereo not drawn),5.66
3,CCCCc1ccc(N2C(=NC(=O)C3CCCO3)SC3CS(=O)(=O)CC32)cc1 (stereo not drawn),-56.5
4,COCc1c(C(=O)N2CCc3ccccc32)oc2ccccc12,7.3
5,COc1ccc(OC2C(=O)N(Cc3ccc4c(c3)OCO4)C2c2sccc2C)cc1 (stereo not drawn),-5.31
6,CN1CC(c2ccccc2)C2(SC(=S)N(Cc3ccco3)C2=O)C12C(=O)Nc1ccccc12 (stereo not drawn),8.32
7,O=C(NCC(=O)N(c1ccccc1F)C(C(=O)NC1CCCC1)c1cccnc1)c1ccco1 (stereo not drawn),-0.398
8,Cc1cc(C(=O)Nc2ccccc2Cl)c2ccccc2n1,-2.16
9,Cn1cnnc1Sc1ccc(C(=O)NCCC(c2ccccc2)c2ccccc2)cc1[N+](=O)[O-],-74.3
10,O=C(c1ccco1)N1CCN(C(=O)C2CC(c3ccc(F)cc3)=NO2)CC1 (stereo not drawn),-72.5
11,CC(C)CN(C(=O)CN1C(=O)NC2(CCc3ccccc32)C1=O)C1CCS(=O)(=O)C1 (stereo not drawn),4.4
12,COc1cc(C(=O)NCC(=O)N/N=C/c2ccc(OC(=O)c3ccco3)cc2)cc(OC)c1OC,-8.84
13,COc1ccc2c(c1)C(=O)[C@@H](O)[C@H](c1ccc(OC)c(Br)c1)O2,12.4
14,Cc1cc(NC(=O)c2noc3c2CCCC3)no1,-1.76
15,COC(=O)c1ccccc1N/C=C/C(=O)c1ccc(Br)cc1,16.1
16,CC(C)c1nc2oc3c(NCc4ccccn4)ncnc3c2c2c1COC(C)(C)C2,5.62
17,COC(=O)[C@@H](N)CCCN=C(N)N[N+](=O)[O-].Cl,8.63
18,COc1cc2nc(SCc3ccc(C(F)(F)F)cc3)n(Cc3cccs3)c(=N)c2cc1OC,-1.47
19,COc1ccc(C(=O)N/C(=C\c2cn(S(=O)(=O)N(C)C)c3ccccc23)C(=O)NCCCN2CCOCC2)cc1,-4
20,Cc1ccc(C(=O)NCc2ccc(F)cc2)cc1NC1=NC2CS(=O)(=O)CC2S1 (stereo not drawn),6.87
21,O=C(NCCN1CCN(c2ccccc2F)CC1)C1CCCN(S(=O)(=O)c2cnc[nH]2)C1 (stereo not drawn),-3.59
22,CC1=C(C(=O)Nc2ccc([N+](=O)[O-])cc2)C(c2cccc(C(F)(F)F)c2)NC(=S)N1c1ccccc1 (stereo not drawn),-1.13
23,CCOc1ccc(Oc2c(C)oc3cc(O)ccc3c2=O)cc1,-4.02
24,CCCCn1nnnc1SCC(=O)Nc1ccc(C)cc1,2.26
25,C=CCN=C1S/C(=C\c2ccc(N(C)C)cc2)C(=O)N1CC=C,16.7
26,CC(OC(=O)CC1CCCC1)C(=O)Nc1ccc(Cl)cn1 (stereo not drawn),-25
27,CC(C)(C)CN1CCNC(=O)C1CC(=O)N1CCN(c2ccccc2)CC1 (stereo not drawn),5.64

row,Compound,"hERG current change (%, negative = inhibition) at 10uM [%]"
1,Cc1ccc(Cc2nc(-c3ccncc3)no2)cc1,-13.6
2,C=CCn1c(=NC(=O)CN2C(=O)CCC2=O)sc2cccc(OC)c21,-29.3
3,Cc1ccsc1C(=O)NCCc1ccc(S(N)(=O)=O)cc1,-2.68
4,O=C(c1ccc2c(c1)N(Cc1ccccc1F)C(=O)c1ccccc1S2(=O)=O)N1CCCC1,1.89
5,CN(CC(=O)Nc1cccc2ccccc12)c1ccc(S(=O)(=O)N2CCOCC2)cn1,11.8
6,COc1cccc(C(=O)Nc2cccnc2)c1OC,-0.88
7,Cc1ccc(CNC(=O)C2CCN(S(=O)(=O)N3CCOCC3)CC2)cc1,-9.34
8,CCCn1c(N)c(C(=O)COC(=O)CNC(=O)c2ccc(C)c(C)c2)c(=O)n(C)c1=O,-78.1
9,CCOC(=O)c1nn(-c2ccc(F)cc2)c2c1CC/C2=C/c1ccccc1,8.7
10,CCCc1cc(=O)[nH]c(SCC(=O)Nc2oc(C)c3c(C)n[nH]c(=O)c23)n1,19.3
11,Cc1cccc(-c2nc(-c3ccncc3)no2)c1,11.1
12,Cc1cnc(C(=O)Nc2cccc(-c3nnc4n3CCCCC4)c2)cn1,2.61
13,CCOC(=O)c1oc2ccc(S(=O)(=O)n3nc(-c4ccccc4)cc3N)cc2c1C,16
14,C=CCn1c(Cc2cccs2)nnc1SCC(=O)NCc1ccco1,-1.47
15,O=C(NN=C1C2CC3CC(C2)CC1C3)c1cccs1,9.04
16,COc1ccc(C2CC(=O)C(C=NCCO)=C(O)C2)cc1OC (stereo not drawn),4.15
17,CCCN(C(=O)COc1ccc(C(C)=O)cc1OC)C1CCS(=O)(=O)C1 (stereo not drawn),7.65
18,O=C(Cn1ccc(NC(=O)OCc2ccccc2)nc1=O)NCCCn1ccnc1,6.72
19,O=C(Cc1cccs1)N(c1ccc(Cl)cc1)C1C=CS(=O)(=O)C1 (stereo not drawn),-0.945
20,COc1ccc(Nc2nc(N)nc(CN3CCC(C)CC3)n2)cc1,-75.4
21,CCOc1ccc(Nc2nc(Cc3nnc(SCC(=O)NCc4ccco4)n3CC)cs2)cc1,-15.7
22,CC(C)NC(=O)Cn1cc(C(=O)c2ccccc2F)c2ccccc21,7.27
23,Cc1c(Cl)cccc1NC(=O)CC(NCCN1CCOCC1)C(=O)O (stereo not drawn),24.1
24,COC(=O)c1cnn(-c2ccc(F)cc2F)c1/C=N/NC(N)=S,-18.2
25,COC(=O)C1C(c2ccc(Cl)cc2)NC(c2ccc(Cl)cc2)C(C(=O)OC)S1(=O)=O (stereo not drawn),2.6
26,COC(=O)CN1C(=O)C(C)(C)Oc2ccc(C(=O)NC3CCCC3)cc21,7.4
27,Cc1ccnc(NC(=O)C2CCN(S(=O)(=O)c3c(C)c(C)cc(C)c3C)CC2)c1,-23.2

# Reference: article PMC4336329 (PLoS ONE, 2015)
